# Laboratory results: publication PMC5700166
# This is a selection; strong and weak results do not stand in their true shares. The list includes weakly bound sequences.
# Columns and labels:
# Assay in all cases: protein-binding microarray (PBM)
# Conditions in all cases: PBM: ~300 nM protein, 6 mM HEPES pH 7.8, 80 mM KCl, 0.5 mM EDTA, 0.5 mM EGTA, 6% glycerol, 35 ng/ul poly-dIdC, 1% milk, 1 h, room temperature; Ap Aiptasia and Nv Nematostella (sea anemones) / Co Capsaspora / Aq Amphimedon (sponge) / Dm Drosophila / Hu human; RHD is the Rel homology domain; high values mean tight binding; most listed sequences are background and not binding sites; double strand, one strand shown
# [1] = biological target: T1, GST-Ap-NF-kB RHD (UniProt A0A913YAJ5)
# T1 sequence: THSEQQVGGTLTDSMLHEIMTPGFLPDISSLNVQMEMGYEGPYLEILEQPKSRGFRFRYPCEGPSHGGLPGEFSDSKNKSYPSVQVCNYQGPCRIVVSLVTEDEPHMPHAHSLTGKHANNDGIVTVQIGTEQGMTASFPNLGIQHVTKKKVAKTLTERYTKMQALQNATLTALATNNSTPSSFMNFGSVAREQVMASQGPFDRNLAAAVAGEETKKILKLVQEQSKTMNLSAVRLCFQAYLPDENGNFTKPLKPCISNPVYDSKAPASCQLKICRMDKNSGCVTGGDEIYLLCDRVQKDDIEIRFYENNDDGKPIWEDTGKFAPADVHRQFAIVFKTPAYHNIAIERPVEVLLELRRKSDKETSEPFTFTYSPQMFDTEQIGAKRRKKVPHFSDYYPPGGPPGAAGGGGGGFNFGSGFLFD
# [2] = biological target: T2, GST-Nv-NF-kB (Cys allele) (UniProt E5G601)
# T2 sequence: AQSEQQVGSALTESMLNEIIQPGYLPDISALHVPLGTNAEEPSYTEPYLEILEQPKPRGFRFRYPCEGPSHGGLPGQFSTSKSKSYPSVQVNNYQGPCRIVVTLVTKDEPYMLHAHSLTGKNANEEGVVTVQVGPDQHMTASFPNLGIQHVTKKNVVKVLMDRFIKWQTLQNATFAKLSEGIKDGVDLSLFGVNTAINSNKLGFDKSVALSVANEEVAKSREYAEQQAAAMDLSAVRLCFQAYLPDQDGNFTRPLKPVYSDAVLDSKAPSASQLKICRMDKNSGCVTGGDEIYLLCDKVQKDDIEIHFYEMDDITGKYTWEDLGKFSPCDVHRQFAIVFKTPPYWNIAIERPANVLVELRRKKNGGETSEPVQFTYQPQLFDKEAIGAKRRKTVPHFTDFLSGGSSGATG
# [3] = biological target: T3, GST-Dm-Relish (UniProt Q94527)
# T3 sequence: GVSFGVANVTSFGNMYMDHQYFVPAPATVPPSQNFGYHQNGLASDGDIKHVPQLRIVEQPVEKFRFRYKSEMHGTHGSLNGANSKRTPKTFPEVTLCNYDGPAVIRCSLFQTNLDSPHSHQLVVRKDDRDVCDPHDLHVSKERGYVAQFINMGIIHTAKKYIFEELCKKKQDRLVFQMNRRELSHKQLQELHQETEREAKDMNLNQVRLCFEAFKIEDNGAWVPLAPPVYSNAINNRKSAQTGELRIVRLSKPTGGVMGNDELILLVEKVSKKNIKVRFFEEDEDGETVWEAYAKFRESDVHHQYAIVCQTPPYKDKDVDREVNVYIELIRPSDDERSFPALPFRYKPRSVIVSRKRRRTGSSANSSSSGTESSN
# [4] = biological target: T4, GST-Aq-NF-kB (UniProt A9Y5G7)
# T4 sequence: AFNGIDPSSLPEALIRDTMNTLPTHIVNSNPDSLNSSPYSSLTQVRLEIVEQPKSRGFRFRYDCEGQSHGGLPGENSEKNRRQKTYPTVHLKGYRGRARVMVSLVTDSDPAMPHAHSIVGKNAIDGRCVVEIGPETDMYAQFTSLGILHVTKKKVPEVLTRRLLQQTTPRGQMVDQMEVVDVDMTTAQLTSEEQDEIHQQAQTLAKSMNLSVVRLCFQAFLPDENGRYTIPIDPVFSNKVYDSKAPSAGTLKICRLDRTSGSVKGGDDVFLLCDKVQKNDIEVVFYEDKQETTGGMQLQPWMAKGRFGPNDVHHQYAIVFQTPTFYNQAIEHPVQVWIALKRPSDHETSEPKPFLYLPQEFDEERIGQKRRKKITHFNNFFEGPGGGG
Sequence,binding signal [1] [z-score],binding signal [2] [z-score],binding signal [3] [z-score],binding signal [4] [z-score]
CCGATTAACATCAAAAACCCCCCTGATGTTAATCGGGTCTTGATTCGCTTGACGCTGCTG,10.5,9.26,11.3,8.84
CCGATTAACATCAGGCTTTTCCCTGATGTTAATCGGGTCTTGATTCGCTTGACGCTGCTG,2.62,4.54,2.3,6.49
CCGATTAACATCACCCAAAGTTTTGATGTTAATCGGGTCTTGATTCGCTTGACGCTGCTG,-0.134,-0.204,0.979,0.601
CCGATTAACATCAGGGATTTTTATGATGTTAATCGGGTCTTGATTCGCTTGACGCTGCTG,5.66,6.48,7.93,6.66
CCGATTAACATCAAGGTTTTCCCTGATGTTAATCGGGTCTTGATTCGCTTGACGCTGCTG,4.36,5.34,5.1,5.65
CCGATTAACATCACCCGCTTTATTGATGTTAATCGGGTCTTGATTCGCTTGACGCTGCTG,0.642,0.262,0.846,0.345
CCGATTAACATCATCGCGGGTAGTGATGTTAATCGGGTCTTGATTCGCTTGACGCTGCTG,0.586,0.039,0.139,0.442
CCGATTAACATCAGACATTTCCCTGATGTTAATCGGGTCTTGATTCGCTTGACGCTGCTG,2.94,4.75,0.576,5.41
CCGATTAACATCAACGTGATTTGTGATGTTAATCGGGTCTTGATTCGCTTGACGCTGCTG,-0.726,-0.422,0.597,-0.391
CCGATTAACATCAGGGGGACCCCTGATGTTAATCGGGTCTTGATTCGCTTGACGCTGCTG,8.92,5.39,9.89,8.54
CCGATTAACATCAGGGCAAAAAATGATGTTAATCGGGTCTTGATTCGCTTGACGCTGCTG,0.124,0.887,0.461,0.273
CCGATTAACATCAGGGTATAACGTGATGTTAATCGGGTCTTGATTCGCTTGACGCTGCTG,0.603,0.736,0.383,0.929
CCGATTAACATCAAGGGTGGAAATGATGTTAATCGGGTCTTGATTCGCTTGACGCTGCTG,0.771,0.22,0.0377,0.785
CCGATTAACATCAGGGCTTCCCCTGATGTTAATCGGGTCTTGATTCGCTTGACGCTGCTG,9.17,10.8,10.4,9.48
